In PMC6919601, “Identification of Plasmodium dipeptidyl aminopeptidase allosteric inhibitors by high throughput screening” (PLoS ONE, 2019):
Among all 110,000 compounds or so, about 230 (0.21%) showed an effect of 50% or more. The list shows a part of the results.

target: DPAP1 (Plasmodium falciparum, UniProt Q8IIJ9); experiment: primary screen, percent inhibition; read by cleavage of a fluorogenic dipeptide substrate; higher = more effect of the substance; set-up: species or system P. falciparum D10 trophozoite lysates; single well
Sequence (Q8IIJ9 whole entry, looked up): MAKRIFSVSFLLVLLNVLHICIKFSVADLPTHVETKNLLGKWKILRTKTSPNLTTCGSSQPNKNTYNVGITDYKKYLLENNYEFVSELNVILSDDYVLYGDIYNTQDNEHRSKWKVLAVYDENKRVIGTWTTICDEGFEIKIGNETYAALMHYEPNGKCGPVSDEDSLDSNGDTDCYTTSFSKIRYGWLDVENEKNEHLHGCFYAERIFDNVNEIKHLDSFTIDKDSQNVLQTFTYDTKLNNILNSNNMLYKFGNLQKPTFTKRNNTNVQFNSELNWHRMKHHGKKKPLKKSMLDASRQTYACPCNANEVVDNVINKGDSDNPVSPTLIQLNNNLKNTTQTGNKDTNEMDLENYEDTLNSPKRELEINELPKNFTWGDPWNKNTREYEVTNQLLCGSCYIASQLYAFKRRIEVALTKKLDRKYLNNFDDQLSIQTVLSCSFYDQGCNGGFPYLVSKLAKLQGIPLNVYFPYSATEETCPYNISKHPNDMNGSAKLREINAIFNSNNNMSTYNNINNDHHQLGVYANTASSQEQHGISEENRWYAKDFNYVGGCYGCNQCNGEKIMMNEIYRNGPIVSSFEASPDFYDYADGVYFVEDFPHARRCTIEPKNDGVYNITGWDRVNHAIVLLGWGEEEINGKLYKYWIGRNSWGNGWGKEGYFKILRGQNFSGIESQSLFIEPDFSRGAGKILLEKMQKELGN
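Also: 30 min substrate incubation versus DMSO and 10 µM JCP410 controls.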

Row | SMILES | % Inhibition @ 10 uM
1 | Cc1ccc(CNC(=O)CN(c2ccc(Br)cc2)S(=O)(=O)c2ccccc2)cc1 | 9.83%
2 | Cc1ccc(OCC(=O)Nc2cccc(Cl)c2C)c(Br)c1 | 0.215%
3 | CCN1CCC(=O)N(CC)c2ccccc21 | 1.62%
4 | COc1ccc(-c2cc(C(F)(F)F)n3ncnc3n2)cc1 | 1.97%
5 | Cc1cc(O)c(C2=Nc3ccccc3SC(c3ccccc3)C2)c(=O)o1 (stereo not drawn) | 2.94%
6 | O=C(NCc1ccccc1)C1CCN(S(=O)(=O)c2ccc(Cl)cc2)CC1 | -3.26%
7 | Cc1cccc(OCC(=O)Nc2ccc(C)c(F)c2)c1 | 4.03%
8 | COc1cc(CN2CCN(Cc3ccc(F)cc3)CC2)cc(OC)c1OC | -3.13%
9 | CSc1ccc(S(=O)(=O)N(CC(=O)NCC2CCCO2)c2ccc(C)cc2)cc1 (stereo not drawn) | 3.46%
10 | COC(=O)c1cccc(NC(=O)CC(=O)c2ccccc2)c1 | -4.58%
11 | O=C(O)CCC(=O)Nc1cccc(-c2cn3ccsc3n2)c1 | -2.77%
12 | COc1ccc(S(=O)(=O)N2CCN(c3ccc(F)cc3)CC2)cc1Br | -3.37%
13 | Cc1ccc2c(c1)c1c(n2CC(O)CO)C(=O)CCC1 (stereo not drawn) | 0.847%
14 | Cc1ccc(C(=O)N2CCN(Cc3ccccc3)CC2)cc1C | 0.361%
15 | Cc1c(C(c2ccc(C(=O)O)cc2)c2c(C)n(C)n(-c3ccccc3)c2=O)c(=O)n(-c2ccccc2)n1C | -8.37%
16 | COc1cccc2c(C)cc(NC3CCCC3)nc12 | 1.54%
17 | CCOc1ccccc1N1CCN(S(=O)(=O)c2ccccc2)CC1 | -0.318%
18 | CC(C)(C)c1ccc(C(CC(=O)O)NC(=O)c2ccc(F)cc2)cc1 (stereo not drawn) | -4.49%
19 | CS(=O)(=O)NCc1ccc(C(=O)NC2CCCCC2)cc1 | -6.42%
20 | CC1CCCCN1CCNC(=O)c1ccc2nc(N3CCCCC3)sc2c1 (stereo not drawn) | 4.22%
21 | Cc1noc(C(=O)Nc2sc3c(c2C(N)=O)CCCC3)c1Cl | -0.0115%
22 | O=C1CC(c2ccc3c(c2)OCO3)Sc2nc3ccccc3n21 (stereo not drawn) | 10.6%

Row | SMILES | % Inhibition @ 10 uM
23 | CC1CCC(NC(=O)c2ccccc2C(=O)O)CC1 (stereo not drawn) | -0.519%
24 | O=C1S/C(=C\c2ccc3c(c2)OCO3)C(=O)N1CN1CCCC1 | -1.37%
25 | COc1cc(CN2CCN(C(=O)c3cccc(F)c3)CC2)cc(OC)c1O | -4.69%
26 | c1ccc2c(CN3CCCCCC3)c[nH]c2c1 | 3.1%
27 | Nc1ccc2nc(SCC(=O)N3CCCC3)sc2c1 | -4.03%
28 | O=C(Nc1nc(-c2ccc(F)c(F)c2)cs1)c1ccccc1 | 1.17%
29 | CNC(=O)CN(c1ccc(C)cc1)S(=O)(=O)c1ccc(SC)cc1 | -1.37%
30 | Cc1c(C(=O)NC2CCCCC2C)oc2ccc3c(c12)C(=O)CC(C)(C)O3 (stereo not drawn) | -3.34%
31 | CCN(CC)C(=O)Cn1cc(SCC(=O)NC)c2ccccc21 | 1.93%
32 | CC(=O)c1ccc(NC(=O)c2cncc(Br)c2)cc1 | -0.884%
33 | COc1ccc(NC(=O)CCCC(=O)O)cc1 | -7.67%
34 | CN(C(=O)c1ccc(Cl)cc1Cl)c1ccccc1 | 0.135%
35 | O=C(COc1ccc(Cl)cc1Cl)NC1CCCC1 | -2.6%
36 | CCOC(=O)c1cc(S(=O)(=O)NC2CCN(Cc3ccccc3)CC2)cn1C | -6.83%
37 | COc1ccc2cc(Br)ccc2c1CC(=O)Nc1ccncc1 | -0.25%
38 | COc1cc(CN2CCN(c3ccc(Cl)cc3)CC2)cc(OC)c1OC | -3.69%
39 | O=C(Cc1ccccc1)N1CCN(Cc2ccccc2C(F)(F)F)CC1 | 3.47%
40 | Cc1cc(=O)n(C(C)C(=O)N2CCC3(CC2)OCCO3)c2c1c(C)nn2-c1ccccc1 (stereo not drawn) | -1.74%
41 | CC(C)OCCCNC(=O)c1cc2c(s1)CS(=O)(=O)C2 | -1.69%
42 | N#CC1=C(SCC(N)=O)N=C2C(=C(O)c3ccccc32)C1c1ccc(Cl)cc1 (stereo not drawn) | 1.35%
43 | CC(C)c1nc2ccccc2n1CCCOc1ccccc1 | 2.73%
44 | CSc1ncc(C(=O)O)c(N[C@@H](C)c2ccccc2)n1 | -3.25%

Row | SMILES | % Inhibition @ 10 uM
45 | COc1cc2c(cc1OC)CN(Cc1ccc(SC)cc1)CC2 | -2.81%
46 | CCCCOn1c(C)c(C(C)=O)c2c3no[n+]([O-])c3ccc21 | 0.983%
47 | CCC(C)NC(=O)C1CCC(=O)N1Cc1ccc(F)cc1 (stereo not drawn) | -1.79%
48 | CC(C)N(CCNC(=O)C1CCCN(c2ncnc3c2nc2n3CCCCC2)C1)Cc1ccccc1 (stereo not drawn) | 6.14%
49 | COc1ccc(C2NCCc3[nH]cnc32)cc1 (stereo not drawn) | 2.4%
50 | Cc1[nH]c2ccccc2c1C1=CCNCC1 | -8.68%
51 | CN(C)Cc1ccccc1Sc1ccccc1 | 2.32%
52 | O=C(O)c1ccccc1C(=O)Nc1cc([N+](=O)[O-])ccc1F | -0.446%
53 | Cc1ccc(-n2nc3c(C)nn(CC(=O)NCc4ccccc4)c(=O)c3c2C)c(C)c1 | 1.63%
54 | COc1ccc(N(CC(=O)Nc2cccc(C(F)(F)F)c2)S(=O)(=O)c2ccccc2)cc1OC | 1.64%
55 | COc1cccc(-c2nn(C)c3sc(C(=O)NC(C)c4ccc5c(c4)OCCO5)cc23)c1 (stereo not drawn) | 1.23%
56 | CCOC(=O)N1CCN(C2CC(=O)N(c3ccc(OC)cc3)C2=O)CC1 (stereo not drawn) | 1.82%
57 | COc1ccc(Br)cc1/C=C1\N=C(c2ccco2)OC1=O | 2.14%
58 | Cn1cc(CNC(=O)CC23CC4CC(CC(C4)C2)C3)cn1 | -5.35%
59 | Cc1ccc(CNc2nc3ccc(C)cc3n3cnnc23)cc1 | 4.58%
60 | O=C(Cn1cnc2c(nnn2Cc2ccc(F)cc2)c1=O)NCC1CCCO1 (stereo not drawn) | -0.431%
61 | C=CCn1c(SCC(=O)N2CCCC2)nc2scc(-c3ccc(C)o3)c2c1=O | 0.674%
62 | COc1cccc(N(CC(=O)Nc2ccccc2C)S(=O)(=O)c2ccc(C)cc2)c1 | -10.2%
63 | CCC(C)NC(=O)CN(C)S(=O)(=O)c1ccc2nc(C)sc2c1 (stereo not drawn) | 1.15%
64 | COc1cc(-c2nc(O)c3c(n2)Oc2c(C)cccc2C3)cc(OC)c1OC | -1.06%
65 | CCC(=O)c1ccc(OCCN2CCCCC2)cc1 | -3.67%
66 | Nc1nc(-c2ccc(O)c(O)c2)cs1 | -0.294%
